Results: the supplement of paper PMC3334620
Whole data set: some 33,000 sequences, median “E-score (-0.5 to 0.5)” near -0.011, cut for the highest 2% near 0.28. The list shows a part of the results.

biological target: T1, Gcr1 (UniProt P07261); experiment: PBM E-score (8-mer binding enrichment) (E-score (-0.5 to 0.5)); higher = stronger / more preferred TF binding; most listed sequences are background and not binding sites; details: protein concentration: 100 nM; construct: GST-full length
T1 sequence: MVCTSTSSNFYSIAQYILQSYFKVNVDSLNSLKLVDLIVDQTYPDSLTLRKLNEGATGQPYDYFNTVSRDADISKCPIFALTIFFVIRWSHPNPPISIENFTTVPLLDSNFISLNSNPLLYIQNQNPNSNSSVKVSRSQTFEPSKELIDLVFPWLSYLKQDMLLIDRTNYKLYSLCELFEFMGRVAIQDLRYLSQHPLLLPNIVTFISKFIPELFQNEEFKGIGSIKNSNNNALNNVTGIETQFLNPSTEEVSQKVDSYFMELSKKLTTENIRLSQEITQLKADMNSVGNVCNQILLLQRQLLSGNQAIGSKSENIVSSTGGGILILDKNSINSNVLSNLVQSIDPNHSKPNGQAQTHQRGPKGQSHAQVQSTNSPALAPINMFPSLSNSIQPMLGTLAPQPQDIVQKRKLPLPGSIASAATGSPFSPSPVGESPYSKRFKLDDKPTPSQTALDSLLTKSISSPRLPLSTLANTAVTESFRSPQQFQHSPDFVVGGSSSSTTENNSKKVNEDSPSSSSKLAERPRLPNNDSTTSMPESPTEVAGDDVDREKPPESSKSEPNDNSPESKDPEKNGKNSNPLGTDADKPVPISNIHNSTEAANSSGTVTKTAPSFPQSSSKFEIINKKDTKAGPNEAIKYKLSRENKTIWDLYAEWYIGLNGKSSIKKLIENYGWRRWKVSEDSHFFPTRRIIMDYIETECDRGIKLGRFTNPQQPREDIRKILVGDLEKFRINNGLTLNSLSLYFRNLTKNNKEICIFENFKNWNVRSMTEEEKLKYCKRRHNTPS
In short: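 Bound GST-tagged yeast transcription factors, applied at about 100-200 nM to double-stranded universal all-10-mer Agilent arrays, were detected with fluorescent anti-GST. Scans were normalised with masliner. A modified Wilcoxon-Mann-Whitney statistic, the E-score, was assigned to each ungapped eight-base word pooled with its reverse complement by the Universal PBM Analysis Suite.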

| Sequence | PBM E-score |
| --- | --- |
| ACCGTCGC | -0.148 |
| ACGCATAC | -0.198 |
| ACCCTCGA | -0.164 |
| AAAATGAC | -0.0701 |
| ATTGAGCA | 0.0737 |
| AAGCTGTA | 0.0419 |
| AGAACCCT | -0.103 |
| CAAATAGA | 0.251 |
| CTCCTAGA | -0.109 |
| AGCTGTTA | -0.094 |
| GTACAAGA | 0.186 |
| CAATTCCC | -0.117 |
| CATTGCAC | 0.0876 |
| TGCGTCAA | 0.148 |
| TCCGACGA | -0.121 |
| ATAACCCA | 0.106 |
| GATTGTCA | -0.185 |
| CCGTTGGA | -0.0294 |
| AGAGAGAG | -0.139 |
| AACCTAGC | -0.0258 |
| CGGAGGGC | -0.176 |
| ACATTAAT | -0.0555 |
| CTTCAATC | -0.122 |
| CGTGGCGC | -0.199 |
| AGTTACAT | -0.0283 |

| Sequence | PBM E-score |
| --- | --- |
| GCGGGACA | -0.0993 |
| CTGCTAAA | 0.17 |
| TATTCAGA | 0.0401 |
| ATCGTTCC | -0.0602 |
| ACCCTTAG | -0.257 |
| AGCGTCTG | 0.175 |
| CAAGGGAC | -0.153 |
| CACGGGTA | -0.0515 |
| AGATGGTA | -0.141 |
| ATATCACA | -0.0039 |
| AAACGTAA | -0.0438 |
| AGTATTGG | 0.169 |
| CAGGTATG | 0.0313 |
| CGCTCGAC | -0.094 |
| TCGGATCA | 0.0877 |
| CTCCTGAC | -0.0163 |
| GGACCGCC | -0.0463 |
| ACCGTGCT | 0.145 |
| AGAACGAC | 0.00731 |
| AAACGAAT | 0.126 |
| CAGTAAGG | -0.00208 |
| CTTAGCGC | 0.154 |
| CCCCCTAA | -0.258 |
| TCACTACA | 0.126 |
| CCACATAG | 0.0534 |

| Sequence | PBM E-score |
| --- | --- |
| AAAGTCAC | 0.0974 |
| AAAGGATG | 0.189 |
| TACCAATA | 0.00103 |
| AAAAAGCA | 0.0551 |
| GAGTTCAC | -0.0309 |
| ATACTACC | 0.0228 |
| AAAGACAC | -0.0476 |
| ATGTAACG | -0.0781 |
| CAGCCAAG | 0.0163 |
| AACTGGGG | 0.084 |
| AGTTCTAG | -0.0557 |
| AGGCTAGC | -0.281 |
| CCCTTTCG | 0.0339 |
| AACTTCAC | -0.0727 |
| TAAGAGAA | -0.0423 |
| GATGGCTA | -0.115 |
| TGAACACA | -0.0975 |
| AGTCATAG | -0.151 |
| ATAGTCCG | -0.228 |
| GATGGGCC | -0.117 |
| GATGAACC | -0.0731 |
| CGTCAGCC | -0.143 |
| ATAATACA | 0.106 |
| CGAACAAC | -0.0516 |
| ACCTAGGG | -0.124 |

| Sequence | PBM E-score |
| --- | --- |
| AGACCATG | -0.268 |
| ATAGGTAC | -0.0413 |
| CTTTCGAA | -0.0912 |
| AGAACTTA | -0.111 |
| AAACTAGA | -0.0509 |
| CTCTACTC | -0.084 |
| GTTAGAGA | -0.0751 |
| AATTCCCA | -0.0967 |
| GTGTCGTA | -0.154 |
| ACCGGTAA | 0.102 |
| AATTATTG | 0.00444 |
| CCCTGCCG | -0.252 |
| GAGGAGGA | -0.217 |
| CAGATAAC | -0.13 |
| ACTCGTGG | -0.0835 |
| CTCTCAGA | 0.0815 |
| AATATGAC | 0.127 |
| CCTATTAA | 0.0644 |
| ACCGTTAG | -0.0968 |
| AGCCAATG | 0.0118 |
| ATTTCTGC | 0.13 |
| CTTAAGCA | 0.114 |
| AGAGAGGA | 0.109 |
| CCCGCATA | 0.173 |
| GCCGTACA | -0.146 |

| Sequence | PBM E-score |
| --- | --- |
| AAACAACC | 0.0203 |
| GTTAGAAA | -0.103 |
| AAAGAGTT | -0.155 |
| CCACGGGG | -0.0972 |
| CCGCCAAC | -0.16 |
| GTGAGAAA | -0.18 |
| AACTTGGT | 0.0662 |
| AGACTGAA | -0.00354 |
| CCCGTTCG | -0.132 |
| ACCTCCAT | -0.24 |
| AAAGTCCG | -0.239 |
| AGAATCGA | 0.0158 |
| CGTATCAG | -0.0534 |
| CGGGTCAC | -0.0739 |
| AAACGGTT | 0.0961 |
| ACGCCTAG | -0.0205 |
| GTCGGTCA | -0.37 |
| ATTCAGAG | -0.0292 |
| CCGAACTA | 0.147 |
| CACGAGAC | 0.00916 |
| CGGACAGA | -0.238 |
| GGTACGCA | -0.129 |
| GTGCCGTA | -0.168 |
| CTTTTAAC | -0.0302 |
| GTGCGTCA | -0.0562 |

| Sequence | PBM E-score |
| --- | --- |
| CAACTAGC | 0.093 |
| TAGATTCA | 0.11 |
| ACACGCGA | 0.018 |
| ATCCAGCC | 0.173 |
| CTTATGTA | -0.00244 |
| TAACGTAA | -0.128 |
| CCCGGACA | -0.0249 |
| CCGAGTTA | -0.159 |
| TCGGCACA | -0.129 |
| GACGGCCC | -0.152 |
| ACCCGGCT | -0.0691 |
| ATCATCCG | -0.191 |
| AAGCAGGC | -0.232 |
| CTGTTCCA | -0.119 |
| GACTGTTA | -0.228 |
| TCTGCACA | 0.11 |
| AGCACACA | -0.0788 |
| CTGCACAA | -0.0488 |
| CAACCGAC | -0.0348 |
| AAACACTC | 0.0102 |
| AGGATCTC | 0.0956 |
| AGGAGTCC | 0.303 |
| CTTCGTGA | 0.188 |
| ATGGGTGC | 0.19 |
| ACGTTAAC | -0.116 |

| Sequence | PBM E-score |
| --- | --- |
| CGAAGATA | -0.0833 |
| ACATTCAC | -0.042 |
| GTCTCCCA | -0.0386 |
| ACGCTCTG | -0.306 |
| CCACCATA | -0.00956 |
| ATTTGATG | -0.0787 |
| GGCCGTCA | -0.0384 |
| GAAATCTC | 0.064 |
| CTCTTGGA | 0.0381 |
| CCAGGGAG | -0.218 |
| ATTGACTA | 0.109 |
| CCGCCTCA | -0.224 |
| CCTGCGCG | -0.142 |
| CATCCTTA | 0.131 |
| AGAAGGGG | -0.101 |
| ATGATATG | 0.0296 |
| CCTTCTCG | -0.144 |
| CAGAGAGG | 0.071 |
| GGAGTGAC | -0.0705 |
| GTGCACGA | -0.11 |
| AGGCAAAC | -0.275 |
| ACTTAGCG | -0.0156 |
